The record followed here is PubChem BioAssay AID463173 (ICCB-Longwood Screening Facility, Harvard Medical School, 2010).

In all, about 52,000 compounds went through this assay and about 4,300 (8.3%) were called active. Cut-off read from the data, not from the text of the source: active = survival mostly below about 52% (no sharp cut-off); inactive = mostly above about 56%. The list shows a part of the results.

The experiment relates to DeltatarO mutant. Nature of the experiment: S. aureus survival, RN4220 and DeltatarO strains – OD600, teichoic acid synthesis inhibitors, primary screen (AID 463173). As to conditions: S. aureus RN4220 wild type/DeltatarO growth, OD600, 18 h, stronger effect = lower value, screened at 18.75 µg/mL (by protocol).
In the case of `O=C(Nc1cccc(Cl)c1)C1=CC(=O)N2CCN=C2S1`, the survival was inactive: 108%.

On to `COc1ccc(CNC(=O)c2nnn(CC(=O)Nc3cc(C)cc(C)c3)c2N)cc1`, for which the survival is inactive: 76%.

With `COc1ccccc1C(=O)NC1(C(F)(F)F)C(=O)Nc2c1c(=O)[nH]c(=O)n2CCc1ccccc1` (configuration not stated), the survival was inactive: 77%.

With `Cc1cc(C(=O)NCc2ccccc2C)c2c(C)nn(-c3cccc(F)c3)c2n1`, the survival was inactive: 95%.

Consider `CCOC(=O)C1=C(CN2CCN(CC)CC2)NC(=O)NC1c1ccc(Cl)cc1` (configuration not stated), for which the survival is inactive: 97%.

Regarding `CCCn1c(=O)sc2cc(NC(=O)c3ccccc3OCC)ccc21`, the survival is inactive: 93%.

For the compound `Cc1cccc(-c2nc(SCC(=O)Nc3cccc(C(F)(F)F)c3)n3[nH]c(=O)cc3n2)c1`, the survival was active: 0%.

On to `CCOc1ccc(CNC(=O)C2CCCN(S(=O)(=O)c3ccc4c(c3)CCCC(=O)N4)C2)cc1` (configuration not stated), for which the survival is inactive: 75%.

For `CC(C)CCNC(=O)CSc1c2c(nc3ccc(Cl)cc13)CCCC2`, the survival is active: 51%.

Turning to `Cc1nn(Cc2ccc(Cl)cc2)c(C)c1NC(=O)c1noc2c1CCc1ccccc1-2`, the survival is active: 31%.

In the case of `CCCCn1cc(S(=O)(=O)c2ccc(OC)cc2)c(=O)c2cc(F)c(F)cc21`, the survival is inactive: 96%.

As to `CC(C)(C)NC(=O)C1N(C2CC2)C(=O)C2C(C(=O)NCc3ccccc3)C3C=CC21O3` (configuration not stated), the survival is inactive: 64%.

Consider `Clc1cccc(-c2csc(-c3nc(-c4ccc(Br)s4)cs3)n2)c1`, for which the survival was inactive: 86%.

As for `CCN(CC)C(=O)c1sc2c(c1C)c(=O)n(-c1ccccc1)c(=O)n2Cc1cc(=O)n2ccccc2n1`, the survival is active: 47%.

In the case of `CCc1ccc(NC(=O)CSc2nc(-c3ccccc3)c(C#N)c(=O)[nH]2)cc1`, the survival is inactive: 78%.

Turning to `COC(=O)Cn1c(CN2CCN(c3ccc(OC)cc3)CC2)nc2c1c(=O)[nH]c(=O)n2C`, the survival is inactive: 88%.

With `CCOC(=O)c1c(S(=O)(=O)NCC(=O)Nc2cccc(CC)c2)c(C)n(C)c1C`, the survival is inactive: 84%.

On to `CCN(CC)C(=O)CN1CCN(c2cccc(Cl)c2)CC1`, for which the survival was inactive: 101%.

`O=C(CC1N=C2c3ccccc3N=C(SCc3ccc(F)cc3)N2C1=O)NCc1cccs1` (configuration not stated): the survival was inactive: 113%.

`COc1ccc2c(c1)CCc1c(C(=O)Nc3ccccc3C(F)(F)F)noc1-2`: the survival is inactive: 143%.

Turning to `CC(=O)Nc1ccccc1-c1nc2cc(C#N)c(C#N)cc2[nH]c1=O`, the survival is inactive: 88%.

In the case of `CCn1c(SCC(=O)c2ccc([N+](=O)[O-])cc2)nnc1-c1ccc(Cl)cc1`, the survival was inactive: 70%.

Turning to `CCOC(=O)c1scc(-c2ccc(C)cc2)c1S(=O)(=O)Nc1cc(Cl)ccc1OC`, the survival is active: -5%.

As for `CC(C)Oc1ccc(C2CC(=O)N(C)C2=O)cc1` (configuration not stated), the survival is inactive: 82%.

On to `CCc1ccc(NC(=O)Cn2ncc3c4ccccc4n(C)c3c2=O)cc1`, for which the survival was inactive: 92%.

With `COc1cccc(CNC(=O)Cn2cc3c(n2)-c2c(oc(C(=O)N4CCCC4)c2C)CC3)c1`, the survival was inactive: 76%.

Consider `CC(=O)OC(COc1ccccc1)Cn1cnc2cc(C)c(C)cc21` (configuration not stated), for which the survival was inactive: 140%.

`COc1ccc(NC(=O)CC2C(=O)N(c3ccc(C)cc3)C(=O)N2C2CCCCC2)cc1` (configuration not stated): the survival was inactive: 64%.

Turning to `O=C(NC1CCCCC1)NC1CCN(S(=O)(=O)c2cccc(Cl)c2)CC1`, the survival is inactive: 81%.

In the case of `O=C(CCSCc1ccccc1Cl)N1CCN(c2cccc(Cl)c2)CC1`, the survival is inactive: 86%.

In the case of `C/C(=N/O)c1ccc2c(c1)OCCO2`, the survival is inactive: 95%.

With `CCCn1c(CCC(=O)Nc2cc(Cl)c(OC)cc2OC)nc2cccnc21`, the survival was inactive: 87%.

Take `Cc1ccc(C)c(NC(=O)CSc2ncc3c(n2)-c2ccc(Cl)cc2N(C)S3(=O)=O)c1`: the survival is inactive: 74%.

For the compound `CCn1nc(-c2ccccc2)c(-c2ccccc2)c(C(=O)Nc2nc(C)c(C(=O)N(C)C)s2)c1=O`, the survival was inactive: 75%.

With `CCc1nc2cccnc2n1-c1ccc(CC(=O)Nc2ccc(C)cc2)cc1`, the survival is inactive: 78%.

For `Cn1nccc1C(=O)Nc1cccnc1`, the survival was inactive: 93%.

As to `O=C(Cn1c(=O)n(-c2ccccc2Cl)c(=O)c2sc3ccccc3c21)N1CCCC1`, the survival was inactive: 80%.

Turning to `CCOc1ccc(CNC(=O)c2cnc3sc(N(CC)CC)nn3c2=O)cc1OC`, the survival was inactive: 77%.

On to `CCOC(=O)c1c(C)[nH]c(CCC(=O)NCCCN2CCN(c3cc(C)ccc3C)CC2)c1C`, for which the survival was inactive: 94%.

For `COc1ccccc1CNC(=O)CN1C(=O)CSc2ccc(S(=O)(=O)N(C)C)cc21`, the survival is inactive: 95%.

Take `O=C(CCNS(=O)(=O)c1ccc2c(c1)CCN2C(=O)C1CC1)N1CCN(c2ccccc2F)CC1`: the survival is inactive: 89%.

Take `CCOc1ccc(S(=O)(=O)N2CCN(c3ccc(Cl)c(Cl)c3)CC2)c2ccccc12`: the survival was inactive: 168%.

In the case of `CN(C)c1ccc(C(CNS(=O)(=O)c2ccc(Br)cc2)N2CCCC2)cc1` (configuration not stated), the survival was inactive: 72%.

On to `COc1cc(OC)cc(C(=O)Nc2ncn[nH]2)c1`, for which the survival was inactive: 80%.

`CCN=C1SC(CC(=O)Nc2ccccc2)C(=O)N1CC` (configuration not stated): the survival is inactive: 56%.

With `COc1ccc(Cl)cc1NC(=O)CSc1ccc(-c2sc(C)nc2C)nn1`, the survival is inactive: 105%.

Take `CC(C)Cc1nn2c(=O)cc(COC(=O)c3ccc4c(c3)OCO4)nc2s1`: the survival was inactive: 73%.

With `O=C(CNCCCN1CCOCC1)Nc1ccc(OC(F)(F)F)cc1`, the survival was inactive: 99%.

With `CCOC(=O)c1cc2c(=O)n3ccccc3nc2n(CCCOC)c1=NC(=O)C(C)(C)Oc1ccc(Cl)cc1`, the survival is inactive: 53%.

As for `CC(C)N(Cc1ccccc1)C(=O)CN1C(=O)COc2ccc(S(=O)(=O)NC3CCCC3)cc21`, the survival was inactive: 93%.

For the compound `Cc1cc(C)cc(NC(=O)CCc2nnc3n(CC(C)C)c(=O)c4ccccc4n23)c1`, the survival was inactive: 89%.

Regarding `CC(C)NC(=O)C1CCCCC1C(=O)O` (configuration not stated), the survival is inactive: 75%.

On to `CCN(C(=O)CSc1nc2ccccc2n1CC(=O)Nc1ccccc1C)c1ccccc1`, for which the survival is active: -5%.

On to `COc1cc(CNc2ccc3[nH]c(=O)[nH]c3c2)ccc1OCc1ccccc1F`, for which the survival is inactive: 85%.

With `COc1ccc(-n2ccn(Cc3ccccc3Cl)c(=O)c2=O)cc1OC`, the survival is inactive: 61%.

With `COc1ccccc1CNC(=O)Cc1csc2nc(-c3ccc(Cl)cc3)cn12`, the survival was inactive: 83%.

Regarding `CCOc1cc(CNC(=O)c2ccc(C)c(NC(=O)c3nsc4ccccc34)c2)ccc1OC`, the survival was inactive: 72%.
